Experimental data taken from PubChem BioAssay AID485294 (National Center for Advancing Translational Sciences (NCATS), 2010).
About 150 (0.041%) of roughly 370,000 compounds were called active. Inconclusive results, whose numbers are uncertain, are shown with a selection of clear calls. The call rests on the fitted dose curve; in most records, active means well fitted inhibition curve with a large enough effect; inconclusive means small, poorly fitted or top-dose-only effect; inactive means flat fitted curve, though single readings scatter. Potencies of inconclusive entries are left out as doubtful fits.

Biological target: Beta-lactamase (Escherichia coli (strain K12)) (UniProt P00811)
Test: qHTS Inhibitors of AmpC Beta-Lactamase (assay with detergent); further: nearly all actives have a fitted effect of over 25% in size
Details: AmpC hydrolysis of nitrocefin, absorbance 480 nm, 0.01% Triton; series mostly up to 114 µM
Outline: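 20 mM phosphate pH 7.0 + 0.01% (detergent screen) or 0.0001% Triton X-100; 5.3 nM AmpC reagent; cpd preinc 15 min RT; nitrocefin (800 uM stock) to start; A480 q20 s × 4 min; Activity was normalised to no-enzyme and no-compound control wells.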
Potency means the concentration at half of the fitted maximal effect; tags describe the fitted curve by direction and shape.

UniProt P00811, sequence (P00811 whole entry, looked up): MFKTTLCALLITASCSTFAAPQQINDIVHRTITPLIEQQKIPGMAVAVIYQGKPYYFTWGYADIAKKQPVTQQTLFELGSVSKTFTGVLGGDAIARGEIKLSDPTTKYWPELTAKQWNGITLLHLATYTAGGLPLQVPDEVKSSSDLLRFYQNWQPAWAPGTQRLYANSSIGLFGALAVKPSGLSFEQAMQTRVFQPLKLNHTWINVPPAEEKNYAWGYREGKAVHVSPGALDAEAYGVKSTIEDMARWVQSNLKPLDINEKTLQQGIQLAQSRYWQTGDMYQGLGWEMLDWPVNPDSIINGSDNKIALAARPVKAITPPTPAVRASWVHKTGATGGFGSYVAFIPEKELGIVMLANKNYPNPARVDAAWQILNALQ

Compound | Potency
S=C1CN=C(c2ccccc2Cl)c2cc(Cl)ccc2N1 | inconclusive [inhibitor, full curve, poor fit]
O=C(CN1C(=O)CCC1=O)Nc1nc(-c2cccs2)cs1 | inconclusive [inhibitor, full curve, poor fit]
CCOc1cc(C=C(C(=O)OC)C(=O)OC)ccc1OCc1ccc([N+](=O)[O-])cc1 | inactive
Cc1cccc(NC(=O)C(C)N2C(=O)C3C4CC(C(Br)C4Br)C3C2=O)c1 (stereo not given) | inconclusive [inhibitor, full curve, poor fit]
Clc1ccccc1-c1ccc2ncnc(NCc3cccnc3)c2c1 | inactive
COc1ccc(C(CC(=O)O)N2Cc3ccccc3C2=O)cc1OC (stereo not given) | inconclusive [inhibitor, single point]
COc1ccc(CN2CC(C(=O)NCCCOC(C)C)CC2=O)cc1 (stereo not given) | inconclusive [inhibitor, full curve, poor fit]
COc1ccccc1CCC(=O)OC(C)C(=O)Nc1c(C)n(C)n(-c2ccccc2)c1=O (stereo not given) | inconclusive [inhibitor, full curve, poor fit]
Cc1c(Br)c([N+](=O)[O-])nn1CC(=O)N1CCc2ccccc21 | inconclusive [inhibitor, partial curve]
C=CCn1c(NCc2c[nH]c3ccccc23)nc2ccccc21 | inactive
COc1ccc(/C=N/NC(=O)c2ccccc2O)cc1CN1CCOCC1 | inactive
CC(Oc1ccc(F)cc1)C(=O)Nc1cc(-c2ccc(F)c(F)c2)no1 (stereo not given) | inactive
CCN(/N=C/C=C/c1ccccc1)c1cc(=O)n(C)c(=O)[nH]1 | inconclusive [inhibitor, full curve, poor fit]
COc1cccc(NC(=O)Nc2ccc3nsnc3c2)c1 | inactive
N=C1C(c2ccc(Br)cc2)=C(O)C2CCc3ccccc3N12 (stereo not given) | inconclusive [inhibitor, full curve, poor fit]
CC(C)c1ccc(CNc2ncccn2)cc1 | inconclusive [inhibitor, full curve]
O=C(O)/C=C/c1cccc(NC(=O)c2ccc(Cl)cc2)c1 | inactive
CC(=O)c1ccc(-n2nnnc2SCC(=O)Nc2sc(C)c(C)c2C#N)cc1 | inactive
CC(/C=C/c1ccccc1F)=N\NC(=O)c1ccc(Cl)cc1 | inactive
CNC(=O)c1csc(-c2ccc(Cl)cc2)n1 | inactive
O=C(NCCCn1ccnc1)c1nc(Cn2cc(Br)cn2)no1 | inconclusive [inhibitor, partial curve, poor fit]
O=C(Nc1cccc(F)c1)c1ccc2c(c1)OCCO2 | inactive
CCCC(C(=O)NCC1CCCO1)N(Cc1ccco1)C(=O)CNS(=O)(=O)c1ccc(F)cc1 (stereo not given) | inconclusive [inhibitor, full curve, poor fit]
O=C(Nc1ccc(S(=O)(=O)N2CCCC2)cc1)c1cccnc1Cl | inconclusive [inhibitor, full curve, poor fit]

Compound | Potency
CCCN(CC(=O)Nc1ccccc1C)C(=O)/C=C/c1cccs1 | inactive
COc1ccc(CNCCC(c2ccc(OC)cc2)c2ccccc2OC)cc1 (stereo not given) | inactive
O=C(COC(=O)/C=C/c1ccc(Br)o1)NC1CCCCC1 | inactive
N#Cc1cc2cc3c(cc2nc1SCC(=O)N1CCCC1)OCCO3 | inconclusive [inhibitor, partial curve]
COc1cc(/C=C(/C#N)C(=O)NCCCc2ccccc2)ccc1OCC(=O)O | inconclusive [inhibitor, full curve, poor fit]
COC(=O)C1=CN(c2ccc(OC)cc2)C=C(C(=O)OC)C1c1cc(OC)c(OC)cc1OC | inactive
Cc1ccc2cc(C#N)c(SCC(=O)N3CCCC3)nc2c1 | inactive
CCCCn1c(-c2cccc(Br)c2)nc2cc3[nH]c(=O)c(C(C)C)nc3cc21 | inconclusive [inhibitor, full curve, poor fit]
COc1ccc(-c2csc(NC(=O)c3ccccc3S(C)(=O)=O)n2)cc1 | inactive
Cc1ccc(-c2[nH]ncc2C(=O)c2ccc(Br)cc2)c(O)c1 | inactive
COc1cc(CCCN2CCNC[C@@H]2C(C)O)cc(OC)c1OC (stereo not given in full) | inconclusive [inhibitor, full curve, poor fit]
S=C(NCCCN1CCOCC1)Nc1ccc(Nc2ccccc2)cc1 | inconclusive [inhibitor, full curve, poor fit]
Cc1ccc(C)c(N2CCN(C(=O)CCS(=O)(=O)c3ccc4c(c3)CC(=O)N4C)CC2)c1 | inconclusive [inhibitor, single point]
N#C/C(=C\c1ccc(Cl)cc1)c1nc(-c2ccco2)cs1 | inconclusive [inhibitor, full curve, poor fit]
CCN1C(=O)c2ccc(C(=O)O)cc2C1=O | inconclusive [inhibitor, single point]
Cc1cc(C)cc(NC(=O)c2cccc(NC3=NC4CS(=O)(=O)CC4S3)c2)c1 (stereo not given) | inconclusive [inhibitor, full curve]
O=C(CSc1nnc(-c2ccco2)o1)Nc1c(F)cccc1F | inactive
COc1ccc(CCNCC(=O)Nc2ccc(C)c(S(=O)(=O)N(C)C)c2)cc1 | inactive
COC(=O)C1=C(C)C(c2cccs2)NC(=O)N1C (stereo not given) | inconclusive [inhibitor, partial curve]
O=C(CSc1ccccc1F)NCC1(N2CCCCC2)CCCCC1 | inconclusive [inhibitor, full curve, poor fit]
CC(C)OCCCNC(=O)C1CCC(CNS(=O)(=O)c2ccc(Cl)cc2)CC1 (stereo not given) | inconclusive [inhibitor, partial curve, poor fit]
COC(=O)CC1C(=O)NCCN1C(=S)NC(=O)c1ccccc1[N+](=O)[O-] (stereo not given) | inconclusive [inhibitor, partial curve, poor fit]
O=c1cc(CN2CCC(Cc3ccccc3)CC2)nc2sccn12 | inconclusive [inhibitor, single point]
CCc1ccc(C2CC(c3ccc(C)cc3)Nc3nc(N)nn32)cc1 (stereo not given) | inconclusive [inhibitor, full curve]

Compound | Potency
Cc1n[nH]c(C)c1S(=O)(=O)N(CC(=O)NCc1ccccc1Cl)c1ccc(C(C)C)cc1 | inactive
Clc1ccc(-c2cn3c(n2)CCC3)cc1 | inconclusive [inhibitor, full curve]
CCN1CCN(CC(=O)Nc2ccc(S(=O)(=O)N3C(C)CCCC3C)cc2)CC1 (stereo not given) | inactive
COc1ccc2[nH]cc(C(=O)CNc3nc(C)cs3)c2c1 | inactive
CC(=O)c1c(NC(=O)c2ccccc2)[nH]c(-c2ccccc2)nc1=S | inconclusive [inhibitor, single point]
COc1ccc(COc2cc(-c3cccc(OC)c3)nc3ccc(NC(=O)c4ccccc4)cc23)cc1 | inconclusive [inhibitor, full curve]
CCn1c(SCC(=O)c2ccc(Cl)cc2)nnc1C(C)C | inconclusive [inhibitor, full curve, poor fit]
COC(=O)C(CC(=O)c1ccc(Cl)cc1)c1ccc(C)cc1 (stereo not given) | inconclusive [inhibitor, partial curve, poor fit]
COc1ccc(C(=O)NC2CCN(C(=S)Nc3cc(C)cc(C)c3)CC2)cc1 | inconclusive [inhibitor, full curve, poor fit]
Cc1ccccc1CCNC(=O)C1CCN(S(=O)(=O)c2ccc(-n3cnnn3)cc2)CC1 | inconclusive [inhibitor, partial curve, poor fit]
Cc1c(C)n(Cc2ccccc2)c2ccc(C(=O)NCCc3ccccc3Cl)cc12 | inactive
COc1ccc([N+](=O)[O-])cc1NCC(=O)Nc1cc(S(=O)(=O)N2CCCCC2)ccc1C | inactive
COC(=O)c1cc(C(=O)OC)n(Cc2ccc(F)cc2)n1 | inconclusive [inhibitor, single point]
CO[C@@H]1[C@@H](OC(N)=O)[C@@H](O)C(Oc2ccc3c(O)c(NC(=O)c4ccc(O)c(CC=C(C)C)c4)c(=O)oc3c2C)OC1(C)C (stereo not given in full) | inconclusive [inhibitor, partial curve, poor fit]
Cc1ccc(OCC(=O)Nc2cccc(-c3nnc(-c4ccccc4)o3)c2)c(C)c1 | inconclusive [inhibitor, single point]
COc1ccc(NC(=O)c2ccc(CNS(=O)(=O)c3ccc4c(c3)C(C)(C)C(=O)N4C)cc2)cc1 | inactive
O=C(O)Cc1sc(Nc2cccc3ccccc23)nc1-c1ccc(F)cc1 | inconclusive [inhibitor, partial curve]
Fc1ccc(OCc2nn[nH]n2)c(F)c1 | inactive
CC(=O)Oc1cccc(N2C(=O)C3C(C2=O)C2C=CC3C23CC3)c1 (stereo not given) | inconclusive [inhibitor, full curve, poor fit]
Cc1ccn2cc(CNS(=O)(=O)c3ccc4c(c3)OCCO4)nc2c1 | inconclusive [inhibitor, full curve, poor fit]
COC(=O)CCCNC(=O)c1ccc2oc(CCCc3ccccc3)nc2c1 | inconclusive [inhibitor, full curve, poor fit]
Cc1ccc(C(=O)CC(=O)COc2ccc(Cl)cc2C)cc1 | inconclusive [inhibitor, single point]
